This note sets out measurements from patent US20160031967A1 (Affibody, published 2016).

Assay [1] deals with T1, human FcRn (Biorbyt, cat. no. orb84388) (human, UniProt P55899 24-297; P61769 21-119, limits assumed).
T1 construct: Bought protein; Biotinylated in AlphaLISA and ELISA; also called biotinylated human FcRn
Nature of the assay: ELISA titration of biotinylated human FcRn, pH 7.4. As to the method:
(§1) ELISA KD analysis of FcRn binding Z variants: A selection of FcRn binders was subjected to an analysis of the response against a dilution series of biotinylated human FcRn using ELISA at both pH 6.0 and pH 7.4 as described above. […] As a background control, all Z variants were also assayed with no target protein added. […] Data were analyzed using GraphPad Prism 5 and non-linear regression and KD values (the half maximal effective concentration) were calculated.
(§2) Periplasm samples were incubated with a serial dilution of biotinylated human FcRn.
For orientation: An ELISA detects its analyte on a solid surface through an enzyme-linked reagent.

For assay [2], the target named is T1, human FcRn (Biorbyt, cat. no. orb84388). The assay can be described thus: ELISA titration of biotinylated human FcRn, pH 6.0. The protocol:
as §1, §2

T1 sequence (P55899 24-297 limits assumed, chain 1 of 2): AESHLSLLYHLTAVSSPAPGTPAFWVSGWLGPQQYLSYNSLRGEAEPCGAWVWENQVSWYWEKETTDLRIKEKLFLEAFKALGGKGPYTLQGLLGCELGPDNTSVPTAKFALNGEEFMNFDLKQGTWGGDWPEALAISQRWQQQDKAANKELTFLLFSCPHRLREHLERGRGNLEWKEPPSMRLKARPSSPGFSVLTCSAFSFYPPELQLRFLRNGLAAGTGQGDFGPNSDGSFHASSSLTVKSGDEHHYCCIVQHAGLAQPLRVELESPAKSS
T1 sequence (P61769 21-119 limits assumed, chain 2 of 2, further chain): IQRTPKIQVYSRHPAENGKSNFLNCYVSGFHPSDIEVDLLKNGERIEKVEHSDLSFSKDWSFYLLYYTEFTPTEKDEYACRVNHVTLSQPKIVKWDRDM

B1: Z13626-ABD fusion (designed binder)
chain: AQHDEALEVDAKYAKEADSASHEIRWLPNLTFDQRVAFIHKLRDDPSQSSELLSEAKKLNDSQAPKVDYVLAEAKVLANRELDKYGVSDYYKNLINNAKTVEGVKALIDEILAALPYVPG
notes: domain: GA3; periplasmic Z-ABD fusion
Regarding B1, the results for the Kd in assay [1] and in assay [2] were 2.7 nM and 1.2 nM, respectively.

B2: Z13672-ABD fusion (designed binder)
chain: AQHDEALEVDAKYAKEVQSASHEIRWLPNLTFDQRVAFIHKLRDDPSQSSELLSEAKKLNDSQAPKVDYVLAEAKVLANRELDKYGVSDYYKNLINNAKTVEGVKALIDEILAALPYVPG
notes: as for B1
Take B2: the Kd (usually the free concentration of one partner at which half of the binding sites on the other are occupied at equilibrium, for simple one-to-one binding) in assay [1] was 5.6 nM; in assay [2], 2.5 nM.

B3: Z13654-ABD fusion (designed binder)
chain: AQHDEALEVDAKYAKELEAAKHEIRWLPNLTFDQRVAFIHKLDDDPSQSSELLSEAKKLNDSQAPKVDYVLAEAKVLANRELDKYGVSDYYKNLINNAKTVEGVKALIDEILAALPYVPG
notes: as for B1
As to B3, the Kd in assay [1] amounted to 2.9 nM; in assay [2] it was 0.95 nM.

B4: Z13644-ABD fusion (designed binder)
chain: AQHDEALEVDAKYAKELNSAAHEIRWLPNLTFDQRVAFIHKLRDDPSQSSELLSEAKKLNDSQAPKVDYVLAEAKVLANRELDKYGVSDYYKNLINNAKTVEGVKALIDEILAALPYVPG
notes: as for B1
For B4, the Kd in assay [1] was 2.8 nM; in assay [2], 1.3 nM.

B5: Z13669-ABD fusion (designed binder)
chain: AQHDEALEVDAKYAKELASAGHEIRWLPNLTFDQRVAFIHKLRDDPSQSSELLSEAKKLNDSQAPKVDYVLAEAKVLANRELDKYGVSDYYKNLINNAKTVEGVKALIDEILAALPYVPG
notes: as for B1
As to B5, the Kd in assay [1] amounted to 1.7 nM; in assay [2], 0.92 nM.

B6: Z13637-ABD fusion (designed binder)
chain: AQHDEALEVDAKYAKEVEVAKHEIRWLPNLTFDQRVAFIHKLDDDPSQSSELLSEAKKLNDSQAPKVDYVLAEAKVLANRELDKYGVSDYYKNLINNAKTVEGVKALIDEILAALPYVPG
notes: as for B1
Consider B6, for which the results for the Kd in assay [1] and in assay [2] were 4.8 nM and 1.3 nM, respectively.

B7: Z13627-ABD fusion (designed binder)
chain: AQHDEALEVDAKYAKELMEAAHEIRWLPNLTFDQRVAFIHKLRDDPSQSSELLSEAKKLNDSQAPKVDYVLAEAKVLANRELDKYGVSDYYKNLINNAKTVEGVKALIDEILAALPYVPG
notes: as for B1
On to B7, for which the Kd in assay [1] turned out to be 2.9 nM; in assay [2] it was 1.2 nM.

B8: Z13628-ABD fusion (designed binder)
chain: AQHDEALEVDAKYAKELNTAAHEIRWLPNLTFDQRVAFIHKLKDDPSQSSELLSEAKKLNDSQAPKVDYVLAEAKVLANRELDKYGVSDYYKNLINNAKTVEGVKALIDEILAALPYVPG
notes: as for B1
Regarding B8, the Kd was found to be 5.5 nM in assay [1] and 1.3 nM in assay [2].

B9: Z13691-ABD fusion (designed binder)
chain: AQHDEALEVDAKYAKEWDAAAHEIRWLPNLTFDQRVAFIHKLRDDPSQSSELLSEAKKLNDSQAPKVDYVLAEAKVLANRELDKYGVSDYYKNLINNAKTVEGVKALIDEILAALPYVPG
notes: as for B1
Turning to B9, the Kd in assay [1] amounted to 2.7 nM; in assay [2], 1.8 nM.

B10: Z13692-ABD fusion (designed binder)
chain: AQHDEALEVDAKYAKEEMQAGHEIRWLPNLTFDQRVAFIHKLRDDPSQSSELLSEAKKLNDSQAPKVDYVLAEAKVLANRELDKYGVSDYYKNLINNAKTVEGVKALIDEILAALPYVPG
notes: as for B1
As to B10, the Kd in assay [1] turned out to be 3.7 nM; in assay [2] it was 1.3 nM.

B11: Z13639-ABD fusion (designed binder)
chain: AQHDEALEVDAKYAKEHDSAAHEIRWLPNLTFDQRVAFIHKLRDDPSQSSELLSEAKKLNDSQAPKVDYVLAEAKVLANRELDKYGVSDYYKNLINNAKTVEGVKALIDEILAALPYVPG
notes: as for B1
Regarding B11, the results for the Kd in assay [1] and in assay [2] were 3 nM and 1.3 nM, respectively.

B12: Z13667-ABD fusion (designed binder)
chain: AQHDEALEVDAKYAKEYRAAAHEIRWLPNLTFDQRVAFIHKLRDDPSQSSELLSEAKKLNDSQAPKVDYVLAEAKVLANRELDKYGVSDYYKNLINNAKTVEGVKALIDEILAALPYVPG
notes: as for B1
Turning to B12, the Kd was 2.3 nM in assay [1] and 1.2 nM in assay [2].

B13: Z13641-ABD fusion (designed binder)
chain: AQHDEALEVDAKYAKEFSAAGHEIRWLPNLTFDQRVAFIHKLRDDPSQSSELLSEAKKLNDSQAPKVDYVLAEAKVLANRELDKYGVSDYYKNLINNAKTVEGVKALIDEILAALPYVPG
notes: as for B1
B13: the Kd in assay [1] is 1.8 nM; in assay [2], 1.1 nM.

B14: Z13652-ABD fusion (designed binder)
chain: AQHDEALEVDAKYAKEDQDAAHEIRWLPNLTFDQRVAFIHKLRDDPSQSSELLSEAKKLNDSQAPKVDYVLAEAKVLANRELDKYGVSDYYKNLINNAKTVEGVKALIDEILAALPYVPG
notes: as for B1
As for B14, the values for the Kd in assay [1] and in assay [2] were 2.9 nM and 1.4 nM, respectively.

B15: Z13694-ABD fusion (designed binder)
chain: AQHDEALEVDAKYAKELSDAAHEIRWLPNLTFDQRVAFIHKLNDDPSQSSELLSEAKKLNDSQAPKVDYVLAEAKVLANRELDKYGVSDYYKNLINNAKTVEGVKALIDEILAALPYVPG
notes: as for B1
As for B15, the values for the equilibrium dissociation constant (Kd) in assay [1] and in assay [2] were 3.6 nM and 0.98 nM, respectively.

B16: Z13656-ABD fusion (designed binder)
chain: AQHDEALEVDAKYAKEYVKAGHEIRWLPNLTFDQRVAFIRKLRDDPSQSSELLSEAKKLNDSQAPKVDYVLAEAKVLANRELDKYGVSDYYKNLINNAKTVEGVKALIDEILAALPYVPG
notes: as for B1
B16: the Kd is 3.7 nM in assay [1] and 1.1 nM in assay [2].

B17: Z13640-ABD fusion (designed binder)
chain: AQHDEALEVDAKYAKEWMDAAHEIRWLPNLTFDQRVAFIHKLRDDPSQSSELLSEAKKLNDSQAPKVDYVLAEAKVLANRELDKYGVSDYYKNLINNAKTVEGVKALIDEILAALPYVPG
notes: as for B1
Regarding B17, the Kd in assay [1] came to 1.9 nM; in assay [2], 1.1 nM.

B18: Z13651-ABD fusion (designed binder)
chain: AQHDEALEVDAKYAKEVSAASHEIRWLPNLTFDQRVAFIHKLRDDPSQSSELLSEAKKLNDSQAPKVDYVLAEAKVLANRELDKYGVSDYYKNLINNAKTVEGVKALIDEILAALPYVPG
notes: as for B1
For B18, the dissociation constant (Kd) was 2.7 nM in assay [1] and 1.2 nM in assay [2].

B19: Z13674-ABD fusion (designed binder)
chain: AQHDEALEVDAKYAKEIEDAGHEIRWLPNLTFDQRVAFIHKLRDDPSQSSELLSEAKKLNDSQAPKVDYVLAEAKVLANRELDKYGVSDYYKNLINNAKTVEGVKALIDEILAALPYVPG
notes: as for B1
For the molecule B19, the dissociation constant Kd in assay [1] amounted to 1.3 nM; in assay [2], 0.92 nM.

B20: Z13697-ABD fusion (designed binder)
chain: AQHDEALEVDAKYAKEAERAGHEIRWLPNLTFDQRVAFIRKLRDDPSQSSELLSEAKKLNDSQAPKVDYVLAEAKVLANRELDKYGVSDYYKNLINNAKTVEGVKALIDEILAALPYVPG
notes: as for B1
As for B20, the values for the dissociation constant (Kd) in assay [1] and in assay [2] were 2.4 nM and 1.2 nM, respectively.

B21: Z13675-ABD fusion (designed binder)
chain: AQHDEALEVDAKYAKENQAAAHEIRWLPNLTFDQRVAFIHKLRDDPSQSSELLSEAKKLNDSQAPKVDYVLAEAKVLANRELDKYGVSDYYKNLINNAKTVEGVKALIDEILAALPYVPG
notes: as for B1
With B21, the Kd in assay [1] was found to be 2.2 nM; in assay [2] it was 0.96 nM.

B22: Z13634-ABD fusion (designed binder)
chain: AQHDEALEVDAKYAKEWYNAAHEIRWLPNLTFDQRVAFIHKLRDDPSQSSELLSEAKKLNDSQAPKVDYVLAEAKVLANRELDKYGVSDYYKNLINNAKTVEGVKALIDEILAALPYVPG
notes: as for B1
Regarding B22, the Kd in assay [1] is 2.3 nM; in assay [2] it was 1.1 nM.

B23: Z13664-ABD fusion (designed binder)
chain: AQHDEALEVDAKYAKELQEAAHEIRWLPNLTFDQRVAFIHKLRDDPSQSSELLSEAKKLNDSQAPKVDYVLAEAKVLANRELDKYGVSDYYKNLINNAKTVEGVKALIDEILAALPYVPG
notes: as for B1
With B23, the figures for the Kd in assay [1] and in assay [2] were 4.2 nM and 2.4 nM, respectively.

B24: Z13695-ABD fusion (designed binder)
chain: AQHDEALEVDAKYAKEIDAAKHEIRWLPNLTFDQRVAFIHKLDDDPSQSSELLSEAKKLNDSQAPKVDYVLAEAKVLANRELDKYGVSDYYKNLINNAKTVEGVKALIDEILAALPYVPG
notes: as for B1
Turning to B24, the Kd was found to be 5.3 nM in assay [1] and 1.8 nM in assay [2].

B25: Z13645-ABD fusion (designed binder)
chain: AQHDEALEVDAKYAKEVDTAAHEIRWLPNLTFDQRVAFIHKLRDDPSQSSELLSEAKKLNDSQAPKVDYVLAEAKVLANRELDKYGVSDYYKNLINNAKTVEGVKALIDEILAALPYVPG
notes: as for B1
As for B25, the Kd in assay [1] turned out to be 2.5 nM; in assay [2], 1.2 nM.

B26: Z13655-ABD fusion (designed binder)
chain: AQHDEALEVDAKYAKESKRAAHEIRWLPNLTFDQRVAFIHKLRDDPSQSSELLSEAKKLNDSQAPKVDYVLAEAKVLANRELDKYGVSDYYKNLINNAKTVEGVKALIDEILAALPYVPG
notes: as for B1
On to B26, for which the Kd in assay [1] turned out to be 2.4 nM; in assay [2], 1.1 nM.

B27: Z13638-ABD fusion (designed binder)
chain: AQHDEALEVDAKYAKEFNFAAHEIRWLPNLTFDQRVAFIHKLRDDPSQSSELLSEAKKLNDSQAPKVDYVLAEAKVLANRELDKYGVSDYYKNLINNAKTVEGVKALIDEILAALPYVPG
notes: as for B1
B27: the Kd came out at 2.9 nM in assay [1] and 1.2 nM in assay [2].
